Experimental data: patent publication US20240189331A1, “NOVEL […] FILM FORMULATION” (INTELGENX CORP., priority 2021, published 2024)

Test: In vitro permeability study in 6 station Franz diffusion cell apparatus using porcine buccal mucosa
Conditions: neutral media: artificial saliva (pH=6.8), real saliva (pH=7.3), phosphate buffer solution (pH=7); FIG. 6

With `CN(C)CCc1c[nH]c2cccc(OP(=O)(O)O)c12` [psilocybin, [3-(2-Dimethylaminoethyl)-1H-indol-4-yl]dihydrogen phosphate] the “diffusion through porcine buccal mucosa” value was “not able to permeate”.
